Values quoted from earlier work in PMC11006913.
This is one part of the list.

Target: HOXD13 I322L (Homo sapiens) (UniProt P35453)
Settings: PBM; conditions not shown; double strand, one strand shown; scale: upbm affinity estimate (log intensity, higher = more binding, comparable within an allelic series)

Sequence of UniProt P35453 (P35453 263-343 I322L): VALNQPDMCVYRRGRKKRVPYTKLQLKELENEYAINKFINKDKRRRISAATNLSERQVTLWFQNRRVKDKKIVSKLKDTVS

Binding signal, 11.8:
TAGTTAAA [8-mer TAGTTAAA]
TGCGTAAA [8-mer TGCGTAAA]
CATCGTAA [8-mer CATCGTAA]
GGTCGTAA [8-mer GGTCGTAA]
AGTTTACA [8-mer AGTTTACA]
TGTTAAAA [8-mer TGTTAAAA]
CTTAACGA [8-mer CTTAACGA]
TATTACGA [8-mer TATTACGA]
CTTTACAA [8-mer CTTTACAA]
ATAGTAAA [8-mer ATAGTAAA]

Binding signal, 11.7:
TGTCGTAA [8-mer TGTCGTAA]

Binding signal, 12.1:
TAACGAGA [8-mer TAACGAGA]
TTGTTAAA [8-mer TTGTTAAA]
CCTTGTAA [8-mer CCTTGTAA]
TATTTAAA [8-mer TATTTAAA]

Binding signal, 12:
ATTAACAA [8-mer ATTAACAA]
GCTTGTAA [8-mer GCTTGTAA]
CGTAAAAA [8-mer CGTAAAAA]
CTTGTAAC [8-mer CTTGTAAC]
CGCGTAAA [8-mer CGCGTAAA]
ATTTTACG [8-mer ATTTTACG]
CGTAAATC [8-mer CGTAAATC]

Binding signal, 11.9:
CGTAAAAC [8-mer CGTAAAAC]
ATTTACAG [8-mer ATTTACAG]
CTGTTAAA [8-mer CTGTTAAA]
ATTTACGG [8-mer ATTTACGG]
CATTAAAA [8-mer CATTAAAA]
ACTGTAAA [8-mer ACTGTAAA]
